The whole screen tested about 420,000 compounds, of which about 64,000 (15%) were called active. Inconclusive results, whose numbers are uncertain, are shown with a selection of clear calls. The call rests on the fitted dose curve; in most records, active means well fitted inhibition curve with a large enough effect; inconclusive means small, poorly fitted or top-dose-only effect; inactive means flat fitted curve, though single readings scatter. Potencies of inconclusive entries are left out as doubtful fits.
Test: qHTS for Inhibitors of human tyrosyl-DNA phosphodiesterase 1 (TDP1): qHTS in cells in absence of CPT; further: nearly all actives have a fitted effect of over 55% in size
Conditions: DT40 Tdp1-/- hTDP1 cells, no CPT, ATP luminescence, 48 h; series mostly up to 46.2 µM
Outline: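 A cellular qHTS used chicken DT40 cells lacking endogenous Tdp1 but carrying stably transfected human TDP1. Compounds were applied without camptothecin, and cell growth kinetics were judged by ATP-dependent luminescence after ≥48 hr.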
Potency means the concentration at half of the fitted maximal effect; tags describe the fitted curve by direction and shape.

| Compound | Potency |
| --- | --- |
| Cc1cc(C(=O)N/N=C\c2cc(C(C)(C)C)c(O)c(C(C)(C)C)c2)n[nH]1 | inconclusive [inhibitor, single point] |
| C=CCc1c(C)nc(-c2ccccc2)nc1N/N=C/c1ccccc1 | inconclusive [inhibitor, single point] |
| Cc1nc(NC(=O)c2ccc3c(c2)OCO3)ccc1Br | inconclusive [inhibitor, single point] |
| COc1cc(OC)c(C(=O)Nc2ccc3ccccc3c2)cc1OC | inconclusive [inhibitor, single point] |
| O=C1[C@@H]2Cc3c([nH]c4ccccc34)C(c3ccccc3)N2C(=O)CN1C1CCN(Cc2ccccc2)CC1 (some centres not stated) | active: 16.4 µM |
| Cc1c(C(=O)O)oc2ccc(S(=O)(=O)N3CCCC3)cc12 | inactive |
| O=C(COC(=O)c1cc(S(=O)(=O)N2CCOCC2)ccc1F)NC1CC1 | inconclusive [inhibitor, single point] |
| Cc1c(NS(=O)(=O)c2cc(C(=O)OCC(=O)c3ccccc3F)ccc2Cl)c(=O)n(-c2ccccc2)n1C | inactive |
| CN(CC(=O)Nc1ccc(Cl)cc1)c1ccc(S(=O)(=O)N2CCCCC2)cc1[N+](=O)[O-] | inconclusive [inhibitor, single point] |
| Cc1[nH]n(-c2ccc(Cl)cc2)c(=O)c1/C=N/n1c(C)nc2ccccc2c1=O | active: 18.4 µM |
| Cc1cccc(OCC(=O)Nc2ccc(-c3nc4ccccc4o3)cc2)c1C | inconclusive [inhibitor, partial curve] |
| CC(C)CNC(=O)N1[C@H](c2cccs2)[C@@H](C)C(=O)[C@@H](C)[C@@H]1c1cccs1 | inconclusive [inhibitor, single point] |
| Cc1ccc(S(=O)(=O)N2CC3(O)CN(C(=O)OC(C)C)N(C(=O)OC(C)C)CC3(OC(=O)NCC3CCCCC3)C2)cc1 (configuration not stated) | inconclusive [inhibitor, single point] |
| C#CCOCCOCCOCCNc1nc(N2CCOCC2)nc(N2CCN(C(=O)Cn3cc(CCCCN)nn3)CC2)n1 | inactive |
| CCn1c(/C=C/c2cc[n+](C)cc2)nc2ccccc21 | inactive |
| O=C(CSc1nc2c(cnn2-c2ccccc2)c(=O)[nH]1)N1CCOCC1 | inconclusive [inhibitor, single point] |
| Cc1cc(C)c(S(=O)(=O)N/N=C/c2ccc([N+](=O)[O-])o2)c(C)c1 | inconclusive [inhibitor, partial curve] |
| CCCCOC(=O)C1=C(C)Nc2ncnn2C1c1ccc(OCC)c(OC)c1 (configuration not stated) | inactive |
| Cc1ccc(C)c(Nc2nc(N)c3ccccc3n2)c1 | active: 18.4 µM |
| COc1ccc(CC(=O)NCCc2csc(-c3cccc(C)c3)n2)cc1 | inconclusive [inhibitor, single point] |
| O=C(CNc1ccc(F)cc1)c1ccccc1 | inconclusive [inhibitor, single point] |
| CCn1nnnc1SCC(=O)c1ccc(C)cc1C | inactive |
| COc1ccc(C)cc1NS(=O)(=O)c1c(C(=O)N2CCCCCC2)c(C)n(C)c1C | inconclusive [inhibitor, single point] |

| Compound | Potency |
| --- | --- |
| N#CC1=C(N)C2=CCCC[C@H]2[C@H](c2ccc(Br)cc2)C1(C#N)C#N | inconclusive [inhibitor, single point] |
| CCCCN1CC(COCc2ccccc2)Oc2cccc(Oc3cc(C)c(C)c(C)c3)c2S1(=O)=O (configuration not stated) | active: 5.17 µM |
| CCNC(=S)NCc1ccc2[nH]c(C)cc2c1 | inactive |
| CCN(c1ccc(NC(=O)COC(=O)CCc2nc3ccccc3n2-c2ccccc2)cc1)C(C)C | inconclusive [inhibitor, single point] |
| Cn1cnc(S(=O)(=O)N2CCN(c3cccc(C(F)(F)F)c3)CC2)c1 | inactive |
| CC1=C(C)CC(C(=O)NC2CCCC2)C(C(=O)O)C1 (configuration not stated) | inactive |
| Cc1nn(Cc2ccccc2)c2c1C(c1ccc(Cl)cc1)C(C#N)=C(N)O2 (configuration not stated) | active: 20.6 µM |
| CCOC(=O)C1(Cc2ccccc2)CCN(Cc2csc(C(C)=O)c2)CC1 | inconclusive [inhibitor, partial curve] |
| O=C(Nc1ccccn1)c1cc2ccccc2cc1O | inconclusive [inhibitor, full curve, poor fit] |
| COc1cc(S(=O)(=O)n2nnc3ccccc32)c(OC)cc1Cl | inconclusive [inhibitor, single point] |
| Cc1nc(-c2ccccc2)sc1-c1ccc(SCC(=O)NCc2ccc(Cl)cc2)nn1 | inconclusive [inhibitor, partial curve] |
| O=C(Nc1nccs1)c1ccc2sc([C@H]3C[C@H](O)[C@@H](CO)O3)nc2c1 | inconclusive [inhibitor, full curve, poor fit] |
| COc1ccc(-c2cc(C)cc3c2OC(CNC(=O)/C=C/c2ccncc2)C3)nn1 (configuration not stated) | inconclusive [inhibitor, single point] |
| COc1ccc(NC(=S)N2CCN(Cc3ccccc3)CC2)cc1 | inconclusive [inhibitor, single point] |
| Oc1ccc(C2=NNC(=NCc3ccc4c(c3)OCO4)SC2)c(O)c1 | active: 4.61 µM |
| Cc1oc(-c2ccccc2Cl)nc1Cn1c(SCc2cccc(F)c2)nc2cccnc21 | active: 25.9 µM |
| COc1ccc(-c2cc(C#N)nc(N3CCNCC3)n2)cc1 | inconclusive [inhibitor, single point] |
| CN(C)c1ccc(CNc2nc3cc(-c4ccc(F)cc4)sc3c(=O)n2C)cc1 | inconclusive [inhibitor, single point] |
| C=Cn1c(C(=O)O)ccc1-c1ccc(OC)cc1 | inconclusive [inhibitor, partial curve, poor fit] |
| Cc1cc(C)n2nc(C(=O)NCC3Cc4cccc(-c5ccc(S(C)(=O)=O)cc5)c4O3)cc2n1 (configuration not stated) | inconclusive [inhibitor, single point] |
| C/C(=N/NS(=O)(=O)c1ccc(Cl)cc1)c1cccc(NC(=O)c2ccc(Cl)cc2Cl)c1 | inconclusive [inhibitor, single point] |
| Cc1ccc(NC(=O)CCCn2c(=O)c3cccn3c3ccccc32)cc1C | active: 11.6 µM |
| CC(=O)c1cccc(S(=O)(=O)NCC(c2ccco2)N2CCCCC2)c1 (configuration not stated) | active: 16.4 µM |

| Compound | Potency |
| --- | --- |
| Cc1ccccc1NC(=O)c1cccc2nc3ccccc3nc12 | active: 23.1 µM |
| COc1cccc(-c2nnc(SCC(=O)N3CCC(C)CC3)o2)c1 | inconclusive [inhibitor, single point] |
| COCCCNC(=O)c1ccc(-n2c(-c3ccccc3)cc3c2CCCC3)cc1 | active: 20.6 µM |
| O=C(CCCN1C(=O)/C(=C/c2ccccc2Cl)SC1=S)NNC(=O)c1cccnc1 | inconclusive [inhibitor, single point] |
| Cc1nnc(SCc2ccc(Cl)cc2)nc1/C=C/N(C)C | inconclusive [inhibitor, partial curve, poor fit] |
| O=C(NC(=S)N1CCN(c2ccc(F)cc2)CC1)c1cccs1 | inconclusive [inhibitor, single point] |
| Cc1cc(C)cc(Cn2cc(CN3CC(N(C)C)CS3(=O)=O)nn2)c1 (configuration not stated) | inactive |
| CC(C)NC(=O)c1ccc(-c2ccc(F)c(F)c2)c2ccoc12 | active: 23.1 µM |
| Cc1cc(C(C)(C)C)oc1C(=O)N(CC(=O)NC1CCCC1)Cc1ccc(F)cc1 | inconclusive [inhibitor, partial curve] |
| Cc1ccc(S(=O)(=O)N(CC(=O)Nc2cccc(N(C)S(C)(=O)=O)c2)c2ccc(Cl)c(Cl)c2)cc1 | active: 23.1 µM |
| O=C(COC(=O)c1ccccc1Br)NCc1ccccc1 | inactive |
| O=c1c(-c2ccccc2)nc2cncnc2n1Cc1ccc(F)cc1 | active: 20.6 µM |
| CCN(CC)CCn1c(SCC(=O)NCCC2=CCCCC2)nc2c(sc3ccccc32)c1=O | inconclusive [inhibitor, single point] |
| Cc1c(C(=O)NCCCN2CCCCC2)oc2ccc3c(c12)C(O)CC1(CCCCC1)O3 (configuration not stated) | active: 16.4 µM |
| COc1ccc(Oc2cccc(Cl)c2CNC(=O)c2ccccc2C(=O)O)cc1 | inactive |
| Cc1ccc(S(=O)(=O)N2CN(CC3CCCO3)c3nc4ccccc4nc32)c(C)c1 (configuration not stated) | inconclusive [inhibitor, single point] |
| CC1CCN(C(=O)CCNS(=O)(=O)c2ccc3c(c2)c(=O)n(C)c(=O)n3C)CC1 | inactive |
| COc1cc(C)c(CN2CCN(S(=O)(=O)c3ccc(Cl)s3)CC2)cc1OC | inconclusive [inhibitor, single point] |
| Cc1ccc(C)c(S(=O)(=O)N2CCN(C(=O)CCC(=O)c3cc(C)sc3C)CC2)c1 | active: 23.1 µM |
| CCCCNC(=O)C1(C)CCN1C(=O)c1ccc(F)c(C)c1 (configuration not stated) | inconclusive [inhibitor, single point] |
| OC[C@H]1O[C@@H]2O[C@H]3[C@H](O)[C@@H](O)[C@@H](O[C@H]4[C@H](O)[C@@H](O)[C@@H](O[C@H]5[C@H](O)[C@@H](O)[C@@H](O[C@H]6[C@H](O)[C@@H](O)[C@@H](O[C@H]7[C@H](O)[C@@H](O)[C@@H](O[C@H]8[C@H](O)[C@@H](O)[C@@H](O[C@H]1[C@H](O)[C@H]2O)O[C@@H]8CO)O[C@@H]7CO)O[C@@H]6CO)O[C@@H]5CO)O[C@@H]4CO)O[C@@H]3CO | inactive |

From PubChem BioAssay AID686978 (National Center for Advancing Translational Sciences (NCATS), 2013)
